Measurements: PubChem BioAssay AID886 (National Center for Advancing Translational Sciences (NCATS), 2007)
Several values for one entry are separate records, joined by “and”; a condition that tells them apart may be missing. Identical values can stand only once. In all, about 73,000 compounds went through this assay and about 2,500 (3.4%) were called active. This list was built around the results that the source calls inconclusive (neither active nor inactive); the mix of calls is not that of the screen. Calls follow the shape of the dose curve; as a rule, active = well fitted inhibition curve with a large enough effect; inconclusive = small, poorly fitted or top-dose-only effect; inactive = no such curve, though single readings can be large or run the other way. Where the call is inconclusive, the potency comes from a doubtful curve fit.

Each molecule was assayed against 3-hydroxyacyl-CoA dehydrogenase type-2 (Homo sapiens) (UniProt Q99714) (assay: qHTS Assay for Inhibitors of HADH2 (Hydroxyacyl-Coenzyme A Dehydrogenase, Type II)). Conditions: recombinant HADH2, NADH fluorescence, beta-hydroxybutyryl-CoA; activity change, negative = inhibition: at 57.1 µM (top of the series).
Sequence of UniProt Q99714 (Q99714 whole entry, looked up): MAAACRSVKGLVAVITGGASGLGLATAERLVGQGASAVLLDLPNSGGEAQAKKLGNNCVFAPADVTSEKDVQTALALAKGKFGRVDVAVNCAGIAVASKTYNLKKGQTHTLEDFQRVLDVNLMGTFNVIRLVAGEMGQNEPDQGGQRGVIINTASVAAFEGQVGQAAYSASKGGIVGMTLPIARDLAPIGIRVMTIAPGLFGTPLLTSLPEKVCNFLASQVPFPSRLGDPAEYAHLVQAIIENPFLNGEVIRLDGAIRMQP
Sequence of UniProt Q99714 (Q99714 whole entry, looked up): as above
In short: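 Buffer 100 mM Tris-HCl pH 9.0/0.01% Tween-20; HADH2 20 nM; NAD+ 1 mM; beta-hydroxybutyryl-CoA 90 uM (all final). 15 min cpd preincubation, RT.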
% is scaled to controls: 0 for no effect and ±100 for the full control effect; potency is read from the fitted curve at half-maximal effect; tags tell the direction and shape of the fitted curve.
Also: nearly all actives have a fitted effect of over 60% in size.

SMILES	Potency	activity change, negative = inhibition
CCOc1ccc(CCNC(=O)C2CCN(c3ccc(N4CCOCC4)nn3)CC2)cc1OCC	inconclusive: 39.8 µM [inhibitor, single point]	
O=C(O)c1ccc2c(c1)NC(=O)C(N1CCCC1)S2 (stereo not drawn)	inconclusive: 25.1 µM [inhibitor, single point]	
CC1(C)O[C@@H]2C[C@H]3[C@H]4C[C@H](F)C5=CC(=O)C=C[C@@]5(C)[C@@H]4[C@H](O)C[C@]3(C)[C@]2(C(=O)CO)O1	inactive	
Cn1c(C(=O)NCCN2CCOCC2)cc2c(=O)n(C)c3ccccc3c21	inconclusive: 25.1 µM [inhibitor, partial curve]	
COc1ccccc1-c1n[nH]c(=S)n1-c1ccccc1	inconclusive: 3.98 µM [inhibitor, full curve, poor fit]	
Cc1cc(C)n2nc3nc(N4CCCCC4)nc(-c4ccco4)c3c2n1	inconclusive: 15.8 µM [inhibitor, partial curve]	
N#CC1=C(N)OC2=C(CCC/C2=C/c2ccoc2)C1c1ccoc1 (stereo not drawn)	active: 25.1 µM	
COc1cc2c(cc1NC(=O)CN1C(=O)NC3(CCc4ccccc43)C1=O)oc1ccccc12 (stereo not drawn)	inconclusive: 39.8 µM [inhibitor, single point]	
O=c1c2c(nc3c(-c4cccc5ccccc45)c[nH]n13)CCC2	inconclusive: 31.6 µM [inhibitor, single point]	
COc1ccc(CNc2ncncc2-c2ccccc2C)c(OC)c1	inconclusive: 25.1 µM [inhibitor, single point]	
COc1ccc(CNc2nc(-c3cccnc3)nn2C(=O)c2cccs2)cc1	inconclusive: 39.8 µM [inhibitor, single point]	
CCCC(=O)Nc1ccc2c(c1)nc1n2CCSC1	inconclusive: 31.6 µM [inhibitor, single point]	
COc1ccc(CC(=O)N2CCN(C(=O)c3ccco3)CC2)cc1	inconclusive: 31.6 µM [inhibitor, single point]	
CC(=O)Nc1cccc(NC(=O)C2CC3CCC2C3)c1 (stereo not drawn)	inconclusive: 20 µM [inhibitor, partial curve]	
COc1ncc2nc(-c3cccs3)c(=O)n(CCC#N)c2n1	inconclusive: 31.6 µM [inhibitor, single point]	
CCOc1ccc2[nH]c(=O)c(CN(CCN3CCOCC3)Cc3nnnn3C(C)(C)CC)cc2c1	inactive	
CCc1nc(SCC(=O)NCC2CCCO2)c2oc3ccccc3c2n1 (stereo not drawn)	inactive	
O=S(=O)(Cc1ccccc1)N1CCC(c2nc(-c3cccs3)no2)CC1	inconclusive: 6.31 µM [inhibitor, single point]	
c1ccc2nc(-c3nc4ccccc4o3)ccc2c1	inconclusive: 0.794 µM [inhibitor, partial curve, poor fit]	
O=C(c1cn(-c2ccccc2)nc1-c1ccncc1)N1CCCCC1	inconclusive: 39.8 µM [inhibitor, single point]	
CC(C)OC(=O)CC(=O)CSc1nc2c(cc1C#N)CCCC2	inconclusive: 10 µM [inhibitor, partial curve]	
COc1cc(NC2c3ncccc3C(=O)N2Cc2ccco2)cc(OC)c1 (stereo not drawn)	inconclusive: 31.6 µM [inhibitor, single point]	
COc1ccccc1-c1nc(NC(C)=O)n[nH]1	inconclusive: 6.31 µM [inhibitor, single point]	
CCc1nc(N2CCOCC2)c(C#N)c2c1COC(C)(C)C2	active: 25.1 µM	
CCc1cc(C(=O)Cc2cnn(-c3ccccc3)c2)c(O)cc1O	inconclusive: 31.6 µM [inhibitor, single point]	

SMILES	Potency	activity change, negative = inhibition
Cc1cc(-n2c(=O)c(C#N)cc3c(=O)n4cccc(C)c4nc32)no1	active: 3.16 µM	
O=C1c2ccccc2NC(c2ccccc2)N1c1ccc(O)cc1 (stereo not drawn)	inactive	
COc1ccccc1CNc1ncnc2ccc(-c3ccc(N(C)C)cc3)cc12	inconclusive: 10 µM [inhibitor, partial curve]	
COc1ccc(-c2nnc(SC(=O)N3c4ccccc4Sc4ccccc43)o2)cc1	inconclusive: 3.98 µM [inhibitor, partial curve]	
CCCC(=O)N(C)c1nnc(-c2ccc(OC)cc2)s1	inconclusive: 39.8 µM [inhibitor, single point]	
CN1CCc2c(sc3c2C(=O)NC(c2cccc(OC(=O)c4cccs4)c2)N3)C1 (stereo not drawn)	active: 25.1 µM	
COCn1c(-c2ccccc2)nc2ccccc21	inconclusive: 3.98 µM [inhibitor, single point]	
O=C(O)c1cnc2ccccc2n1	active: 6.31 µM	
O=C(O)[C@@H]1[C@@H]2C[C@H]([C@@H](Br)[C@H]2N2C(=O)CCC2=O)[C@@H]1C(=O)O		inactive: 11% [at 11.4 µM]
COc1ccc(C(=O)Nc2oc(-c3ccccc3)c(-c3ccccc3)c2C#N)cc1OC	inactive	
S=c1nc[nH]c2c1ncn2Cc1ccco1	inconclusive: 7.94 µM [inhibitor, single point]	
CC(=O)OCC(=O)c1ccc2ccn(C(C)=O)c2c1	active: 25.1 µM	
N#CC1=C(N)C(C#N)(C#N)[C@H](c2ccoc2)[C@H]2CN(Cc3ccccc3)CC=C12	inconclusive: 6.31 µM [inhibitor, single point]	
O=C(Cc1c(O)c2ccccc2[nH]c1=O)OC1CCCCC1	inconclusive: 39.8 µM [inhibitor, single point]	
Cc1cccc(C)c1NC(=O)N1CCC(c2nc3ccccc3o2)CC1	inactive	
O=C1c2c(O)cc(O)cc2O[C@@H](c2ccc(O)c(O)c2)[C@H]1O	active: 5.01 µM	
CCCCCc1nnc(NC(=O)Cc2cccs2)s1	active: 7.94 µM	
CN(C)S(=O)(=O)c1ccc(N2CCOCC2)nc1	active: 25.1 µM	
N#CC1=C(N)Oc2n[nH]c(-c3ccc(F)cc3)c2C1c1ccncc1 (stereo not drawn)	inconclusive: 12.6 µM [inhibitor, partial curve]	
COc1c(C)cccc1C(=O)Nc1cc(-c2nn3c(C)nnc3s2)ccc1C	inactive	
N#CCCn1c(SCC(=O)c2c[nH]c3ccccc23)nc2ccccc21	inconclusive: 15.8 µM [inhibitor, partial curve]	
CCCCCc1nnc(NC(=O)C2CCCO2)s1 (stereo not drawn)	inconclusive: 25.1 µM [inhibitor, single point]	
Cc1cccc(CNC(=O)c2ccccc2N)c1	active: 25.1 µM	
COc1cc(-c2nnc(COc3ccc4ccccc4c3)o2)cc(OC)c1OC	inconclusive: 6.31 µM [inhibitor, single point]	
CO/N=C(\C)CCN1CCCCc2nc(C)c(C)cc21		inactive: -6.6% [at 11.4 µM]

SMILES	Potency	activity change, negative = inhibition
COc1ccc2[nH]c3c(=O)n(CCCCC(=O)N4CCCC4)c(=S)[nH]c3c2c1	inconclusive: 3.98 µM [inhibitor, full curve]	
CC(C)NC(=O)Nc1cccs1	inconclusive: 12.6 µM [inhibitor, partial curve]	
O=C1CCCC=C1[C@@H](O)C1CCCCC1		inactive: -9.12% [at 11.4 µM]
COCC(=O)Nc1c(C(=O)Nc2ccccc2OC)oc2ccccc12	active: 31.6 µM	
C=CCn1c(N)c(-c2nc3ccccc3n2C)sc1=S	inconclusive: 25.1 µM [inhibitor, single point]	
COC(=O)c1ccc(C(NC(=O)OCc2ccccc2)/C(=C/[C@@H](C)C(=O)NCc2ccc(S(C)(=O)=O)cc2)c2cccnc2)cc1 (stereo partly drawn)	inactive	
NC(=S)c1ccc(C(N)=S)o1	inconclusive: 15.8 µM [inhibitor, partial curve]	
Cc1cc(C)n(CCCNCC(O)c2ccccc2)n1 (stereo not drawn)	inactive	
O=C(c1ccco1)N1CCN(C(c2cccs2)c2sc3ncnn3c2O)CC1 (stereo not drawn)	inconclusive: 39.8 µM [inhibitor, single point]	
O=C1C2C3C=CC(C3)C2C(=O)N1CCCO (stereo not drawn)	inconclusive: 7.94 µM [inhibitor, single point]	
N[C@H](C(=O)O)c1ccc(C(=O)O)c(O)c1	active: 31.6 µM	
O=c1cc(-c2ccc(O)c(O)c2)oc2cccc(O)c12	inconclusive: 39.8 µM [inhibitor, single point]	
O=C(O)c1cc(=O)c2ccccc2[nH]1	inconclusive: 39.8 µM [inhibitor, single point] and inconclusive: 10 µM [inhibitor, partial curve]	
O=C(NCCNC[C@@H](O)COc1ccc(O)cc1)N1CCOCC1	inconclusive: 39.8 µM [inhibitor, single point]	
O=C(O)CCn1c(C(=O)O)cc2sccc21	inactive	
CC1(C)CC(=O)C2=C(C1)N(CCN1CCOCC1)C1=C(C(=O)CC(C)(C)C1)C2c1ccc(Cl)cc1	inconclusive: 31.6 µM [inhibitor, single point]	
Cc1cc(S(=O)(=O)N2CCCC2)ccc1OCC(=O)NCc1ccco1	inconclusive: 31.6 µM [inhibitor, single point]	
Cc1ccc(-c2nnc3c4ccccc4c(C)nn23)cc1S(=O)(=O)N1CCN(C)CC1	inactive	
O/N=C1/CCc2cccc3cccc1c23	inconclusive: 39.8 µM [inhibitor, single point]	
O=C(c1ccc(S(=O)(=O)N2CCCC2)cc1)N1CCCc2ccccc21	inactive	
Nn1c(SCC(=O)Nc2cccc(F)c2)nnc1C1CCCCC1	inactive	
Cc1cc(C)c2c(n1)nn1c(N3CCN(Cc4ccccc4)CC3)cc(C)nc21	active: 20 µM	
O=C(Cc1ccc(Cl)cc1)NCC(=O)N1CCCC1	inactive	
